# Results from the supplement of paper PMC8728848.
# The list shows a part of the results.
# Legend:
# Experiment in all cases: glycan array binding signal (z-score within array); higher = stronger binding
# Conditions in all cases: glycan notation: IUPAC condensed, linker removed
# [1] = target: Gal(b1-4)GlcNAc(b1-2)Man(a1-3)[Gal(b1-4)GlcNAc(b1-2)Man(a1-6)]Man(b1-4)GlcNAc(b1-4)[Fuc(a1-6)]GlcNAc
# Procedure, shortened: (§1)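 Negative Z-scores can be read as non-binding. The Z-score is calculated within each array and then averaged across arrays of one protein sequence at different concentrations or buffers and across linkers. Arrays, 3228 in all, were curated from the Consortium for Functional Glycomics database and kept only where the protein sequence was available.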
# [2] = target: Gal(b1-4)GlcNAc(b1-2)Man(a1-3)[Gal(b1-4)GlcNAc(b1-2)Man(a1-6)][Gal(b1-4)GlcNAc(b1-4)]Man(b1-4)GlcNAc(b1-4)[Fuc(a1-6)]GlcNAc
# Procedure, shortened: as §1
# [3] = target: Gal(b1-4)GlcNAc(b1-2)Man(a1-3)[Gal(b1-4)GlcNAc(b1-2)Man(a1-6)][GlcNAc(b1-4)]Man(b1-4)GlcNAc(b1-4)[Fuc(a1-6)]GlcNAc
# Procedure, shortened: as §1
# [4] = target: Gal(b1-4)GlcNAc(b1-2)Man(a1-3)[GlcNAc(b1-2)Man(a1-6)]Man(b1-4)GlcNAc(b1-4)GlcNAc
# Procedure, shortened: as §1
# [5] = target: Gal(b1-4)GlcNAc(b1-2)Man(a1-3)[GlcNAc(b1-4)][Gal(b1-4)GlcNAc(b1-2)Man(a1-6)]Man(b1-4)GlcNAc(b1-4)GlcNAc
# Procedure, shortened: as §1
# [6] = target: Gal(b1-4)GlcNAc(b1-2)Man(a1-3)[Man(a1-6)]Man(b1-4)GlcNAc(b1-4)GlcNAc
# Procedure, shortened: as §1
# [7] = target: Gal(b1-4)GlcNAc(b1-2)Man(a1-6)Man(b1-4)GlcNAc(b1-4)GlcNAc
# Procedure, shortened: as §1
# [8] = target: Gal(b1-4)GlcNAc(b1-2)Man(a1-6)[GlcNAc(b1-2)Man(a1-3)]Man(b1-4)GlcNAc(b1-4)GlcNAc
# Procedure, shortened: as §1
# [9] = target: Gal(b1-4)GlcNAc(b1-2)Man(a1-6)[Man(a1-3)]Man(b1-4)GlcNAc(b1-4)GlcNAc
# Procedure, shortened: as §1
# [10] = target: Gal(b1-4)GlcNAc(b1-2)[Gal(b1-4)GlcNAc(b1-4)]Man(a1-3)[Gal(b1-4)GlcNAc(b1-2)Man(a1-6)]Man(b1-4)GlcNAc(b1-4)GlcNAc
# Procedure, shortened: as §1
# [11] = target: Gal(b1-4)GlcNAc(b1-2)[Gal(b1-4)GlcNAc(b1-4)]Man(a1-3)[Gal(b1-4)GlcNAc(b1-2)[Gal(b1-4)GlcNAc(b1-6)]Man(a1-6)]Man(b1-4)GlcNAc(b1-4)GlcNAc
# Procedure, shortened: as §1
# [12] = target: Gal(b1-4)GlcNAc(b1-2)[Gal(b1-4)GlcNAc(b1-4)]Man(a1-3)[GlcNAc(b1-4)][Gal(b1-4)GlcNAc(b1-2)Man(a1-6)]Man(b1-4)GlcNAc(b1-4)GlcNAc
# Procedure, shortened: as §1
# [13] = target: Gal(b1-4)GlcNAc(b1-2)[Gal(b1-4)GlcNAc(b1-4)]Man(a1-3)[GlcNAc(b1-4)][Gal(b1-4)GlcNAc(b1-2)[Gal(b1-4)GlcNAc(b1-6)]Man(a1-6)]Man(b1-4)GlcNAc(b1-4)GlcNAc
# Procedure, shortened: as §1
# [14] = target: Gal(b1-4)GlcNAc(b1-2)[Gal(b1-4)GlcNAc(b1-6)]Man(a1-6)[Gal(b1-4)GlcNAc(b1-2)Man(a1-3)]Man(b1-4)GlcNAc(b1-4)GlcNAc
# Procedure, shortened: as §1
# [15] = target: Gal(b1-4)GlcNAc(b1-2)[Gal(b1-4)GlcNAc(b1-6)]Man(a1-6)[Gal(b1-4)GlcNAc(b1-2)Man(a1-3)]Man(b1-4)GlcNAc(b1-4)[Fuc(a1-6)]GlcNAc
# Procedure, shortened: as §1
# [16] = target: Gal(b1-4)GlcNAc(b1-2)[Gal(b1-4)GlcNAc(b1-6)]Man(a1-6)[GlcNAc(b1-4)][Gal(b1-4)GlcNAc(b1-2)Man(a1-3)]Man(b1-4)GlcNAc(b1-4)GlcNAc
# Procedure, shortened: as §1
# [17] = target: Gal(b1-4)GlcNAc(b1-2)[Gal(b1-4)GlcNAc(b1-6)]Man(a1-6)[GlcNAc(b1-4)][Gal(b1-4)GlcNAc(b1-2)[Gal(b1-4)GlcNAc(b1-4)]Man(a1-3)]Man(b1-4)GlcNAc(b1-4)[Fuc(a1-6)]GlcNAc
# Procedure, shortened: as §1
# [18] = target: Gal(b1-4)GlcNAc(b1-3)Gal(b1-3)GalNAc
# Procedure, shortened: as §1
# [19] = target: Gal(b1-4)GlcNAc(b1-3)Gal(b1-3)GlcNAc
# Procedure, shortened: as §1
binder,measurement,setting,value
Cohesin-marm-DC-ASGPR-CRD (protein) LDITSHHHHHHDDLDAVRIKVDTVNAKPGDTVRIPVRFSGIPSKGIANCDFVYSYDPNVLEIIEIEPGDIIVDPNPDKSFDTAVYPDRKIIVFLFAEDSGTGAYAITKDGVFATIVAKVKEGAPNGLSVIKFVEVGGFANNDLVEQKTQFFDGGVNVGDTTEPATPTTPVTTPTTTDDLDAASCPINWVEHQGSCYWFSRSGKTWPEAERYCQLENTHLVVINSREEQNFVQAHLGSAYTWMGLSDPEGVWKWVDGTDYSSGFQNWKPGQPDDWQGHGLGGGEDCAHFHPDGRWNDDVCQRSYHWVCEAGLTQASQDSH,glycan array binding signal (z-score),[1],-0.427
same,glycan array binding signal (z-score),[2],-0.37
same,glycan array binding signal (z-score),[3],-0.438
same,glycan array binding signal (z-score),[4],-0.42
same,glycan array binding signal (z-score),[5],-0.436
same,glycan array binding signal (z-score),[6],0.088
same,glycan array binding signal (z-score),[7],-0.431
same,glycan array binding signal (z-score),[8],-0.308
same,glycan array binding signal (z-score),[9],-0.437
same,glycan array binding signal (z-score),[10],-0.44
same,glycan array binding signal (z-score),[11],-0.431
same,glycan array binding signal (z-score),[12],-0.449
same,glycan array binding signal (z-score),[13],-0.305
same,glycan array binding signal (z-score),[14],-0.351
same,glycan array binding signal (z-score),[15],-0.429
same,glycan array binding signal (z-score),[16],-0.439
same,glycan array binding signal (z-score),[17],-0.414
same,glycan array binding signal (z-score),[18],-0.457
same,glycan array binding signal (z-score),[19],-0.447
